In PubChem BioAssay AID1240 (Sanford-Burnham Center for Chemical Genomics, 2008):
The campaign covered roughly 50,000 compounds. About 800 (1.6%) showed an effect of 50% or more. This is one part of the list.

biological target: Bcl-2-like protein 10 (Homo sapiens) (UniProt Q9HD36); test: Phenotype converters, Bcl-B/TR3 peptide binding displacement, primary biochemical FP (AID 1240); conditions: GST-Bcl-B / FITC-TR3 peptide fluorescence polarization; stronger effect = higher value; compound at 3.75 mg/L;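 also: 0% = Bcl-B with tracer peptide and DMSO and 100% = tracer peptide lacking Bcl-B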
Chain of UniProt Q9HD36 (Q9HD36 whole entry, looked up): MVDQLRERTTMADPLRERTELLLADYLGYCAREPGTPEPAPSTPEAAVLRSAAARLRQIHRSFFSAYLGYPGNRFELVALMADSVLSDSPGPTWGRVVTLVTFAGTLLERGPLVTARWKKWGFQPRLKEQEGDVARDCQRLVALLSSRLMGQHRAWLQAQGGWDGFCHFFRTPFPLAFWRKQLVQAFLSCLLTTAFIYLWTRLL

In order of falling displacement:
1. Cc1ccsc1/C=C(\C#N)c1nc(-c2cccc([N+](=O)[O-])c2)cs1  147%
2. COc1cc(C(=S)N2CCOCC2)cc(OC)c1OC(=O)c1cccc([N+](=O)[O-])c1  70.4%
3. O=C1CC(c2ccccc2)CC(O)=C1C=NCCO (stereo unspecified)  35.3%
4. O=C(Nc1ccc2oc(-c3ccncc3)nc2c1)c1ccncc1  28.9%
5. COc1ccc(N2C(=O)NC(=O)/C(=C/c3ccc(-c4ccc([N+](=O)[O-])cc4Cl)o3)C2=O)cc1  20.3%
6. OCc1c(O)cnc2ccccc12  19.4%
7. CC(NC(=O)CSc1nc2ccc(N3C(=O)c4ccccc4C3=O)cc2s1)c1ccccc1 (stereo unspecified)  17.1%
8. Cc1ccc(N2C(=O)C(Cl)=C(N3CCN(C)CC3)C2=O)cc1  16.9%
9. N#Cc1ccccc1NS(=O)(=O)c1ccccc1[N+](=O)[O-]  16.4%
10. CN(C)CC1C(=O)N(c2ccccc2)N(c2ccccc2)C1=O  15.9%
11. CCN(CC)c1ccc(C=C2C(=O)N(C)C(=O)N(C)C2=O)c(O)c1  14.7%
12. O=c1cc(-c2ccccc2)nc2cc(-c3ccc(F)cc3)[nH]n12  13.8%
13. CS(=O)(=O)N1CCN(Cc2ccncc2)CC1  13.2%
14. Cc1ccc(N=C(NOCc2ccc([N+](=O)[O-])cc2)c2nonc2N)cc1  12.1%
15. O=C1C=CC(=O)N1c1ccc(Br)cc1[N+](=O)[O-]  11.7%
16. Cc1onc(-c2ccccc2Cl)c1C(=O)N1CCN(Cc2ccccc2)CC1  11.1%
17. CCOC(=O)CSCCOc1ccc(C=C2C(=O)NC(=S)NC2=O)cc1OC  10.5%
18. COc1c(O)ccc(/C=N\NC(=O)c2ccc(Br)cc2)c1[N+](=O)[O-]  10.5%
19. Cc1cc2nc(-c3ccc(NC(=S)NC(=O)c4ccco4)cc3)oc2cc1C  10.2%
20. O=C(COc1ccc(Cl)cc1)Oc1ccc2c(c1)oc(=O)c1ccccc12  10%
21. O=C(CN1C(=O)c2ccccc2C1=O)NC(c1ccccc1)c1ccccc1  9.6%
22. O=C(Nc1ccc2oc(-c3cc(Br)ccc3Cl)nc2c1)c1ccc([N+](=O)[O-])cc1  9.4%
23. COC(=O)C(=C/C=C/N(C(C)C)C(C)C)C(=O)OC  8.5%
24. O=C(CSc1nnc(-c2ccc(Br)cc2)o1)OCc1ccccc1  8.5%
25. Nc1nc(SCCc2ccccc2)nc2sc3c(c12)CCC3  8.1%
26. O=C1c2ccc3c4c(ccc(c24)C(=O)N1CCc1ccc(Cl)cc1)CC3  7.5%
27. Cc1ccc(C)n1-c1ccc(Nc2ccccc2)cc1  7.1%
28. O=[N+]([O-])c1ccc(CNCC2(c3ccccc3)CCCC2)cc1  6.8%
29. COc1ccc(CC(=O)N/N=C/c2ccc(-c3cc(Cl)ccc3C)o2)cc1  6.5%
30. C/C(=N\NC(=O)CN(c1cc(C)ccc1C)S(=O)(=O)c1ccccc1)c1cccs1  6.3%
31. Cc1cc(OCC(=O)NN)ccc1Cl  6.3%
32. CN(C)CCNC(=O)c1ccc(I)cc1  6%
33. COc1ccc(C2Nc3ccccc3C(=O)N2Cc2ccco2)cc1 (stereo unspecified)  6%
34. CC(=O)c1sc(NC(=O)c2ccc3c(c2)OCO3)nc1C  5.6%
35. O=C1c2ccccc2C(=O)N1c1ccc(O)cc1  5.2%
36. O=C1CC(N2CCN(c3ccc([N+](=O)[O-])cc3)CC2)C(=O)N1c1ccc(F)cc1 (stereo unspecified)  5.1%
37. COc1ccc(/C=C/C(=O)Nc2ccc(OC)cc2OC)cc1  4.9%
38. C(=N/N1CCN(c2ccccc2)CC1)/c1ccccn1  4.6%
39. CCN1CCN(S(=O)(=O)Cc2ccccc2)CC1  4.5%
40. COc1ccc(CSc2nc3ccccc3o2)cc1  4.1%
41. COc1ccc2c(c1OC)C(=O)OC2Nc1ccc(C(C)=O)cc1 (stereo unspecified)  4.1%
42. Cc1ccc(C(=O)NCCN(C)C)cc1[N+](=O)[O-]  3.4%
43. CC(C)CNC(=O)c1cccc(NC(=O)/C=C/C(=O)O)c1  3.4%
44. CCOC(=O)c1c(NC(=O)c2cc3ccccc3oc2=O)sc(C(=O)CC)c1C  3%
45. O=C(O)c1ccccc1SCc1ccc2c(c1)OCO2  2.8%
46. O=C(CC1Sc2ccc(C(F)(F)F)cc2NC1=O)Nc1ccc(N2CCOCC2)cc1 (stereo unspecified)  2.2%
47. Cc1ccc(/C=C2/C=C(c3ccccc3)OC2=O)cc1  1.9%
48. Cc1ccc(C2CC(=O)Nc3c2cc(Br)c2ccccc32)cc1[N+](=O)[O-] (stereo unspecified)  1.7%
49. CCc1cc(=O)oc2cc(OCC(N)=O)ccc12  1.3%
50. O=C(Nc1ccc(NC(=O)c2cccc3c(Br)cccc23)cc1)c1ccco1  1.3%
51. COc1cc(/C=N/NC(N)=O)ccc1Oc1nc(Nc2ccc(C)cc2Br)nc(N2CCOCC2)n1  0.9%
52. Cc1ccc(OCCSc2nc3ccccc3n2CCO)cc1  0.7%
53. CCOc1ccc(NC(=O)c2ccoc2C)cc1  0.6%
54. CC(=O)Nc1ccc(S(=O)(=O)NCc2ccccc2C)cc1  0%
55. Cc1ccc2c(c1)NC(c1ccc(F)cc1)C1=C(CC(c3ccccc3)CC1=O)N2 (stereo unspecified)  -0.3%
56. Cc1ccc(-n2c(O)c(/C=C3\C=Nc4ccccc43)c(=O)[nH]c2=S)cc1  -0.7%
57. CCOc1nc(OCC)c(C=O)c(OCC)n1  -0.7%
58. O=C1C2ON(c3ccccc3)C(c3ccccn3)C2C(=O)N1c1cccc(C(F)(F)F)c1 (stereo unspecified)  -0.9%
59. CCC1(C)CC(CC#N)(c2ccccc2OC)CCO1 (stereo unspecified)  -1.1%
60. CC1(C)CC(=O)C2=C(C1)Nc1ccccc1NC2c1coc2ccccc2c1=O (stereo unspecified)  -1.1%
61. Cc1cc(Cl)ccc1OCC(=O)Nc1ccc(I)cc1Cl  -1.2%
62. CC(=O)Nc1cccc(/C(C)=N/N=C2/NC(=O)C(CC(=O)Nc3ccc(C)c(Cl)c3)S2)c1 (stereo unspecified)  -1.5%
63. O=C(Nc1ccc(OC(F)(F)F)cc1)c1cccc([N+](=O)[O-])c1  -1.6%
64. Fc1ccc(-c2csc(N3CCOCC3)n2)cc1  -1.7%
65. Cc1ccc(C(C)C)c(OCC(=O)Nc2ccc(NC(=O)c3ccccc3Cl)cc2)c1  -2.1%
66. CCN(CC)S(=O)(=O)c1ccc(NS(=O)(=O)c2ccc(NC(C)=O)cc2)cc1  -2.1%
67. C(=N\n1cnnc1)/c1cccc(OCCOc2ccccc2)c1  -2.4%
68. C=CCc1cccc(/C=N/NC(=O)c2cc(C)[nH]n2)c1O  -2.4%
69. COc1cccc(CN2CCN(C(=O)c3ccco3)CC2)c1OC  -3.2%
70. Cc1ccc(OCC(=O)Nc2ccccc2C(N)=O)c(Br)c1  -3.3%
71. O=C(N/N=C/C(Br)=C/c1ccccc1)c1cc(C2CC2)[nH]n1  -3.3%
72. Cc1ccc(Cl)c(OCCCN2CCOCC2)c1  -3.5%
73. COc1cc(O)cc(Br)c1/C=N/Nc1nc2ccccc2s1  -3.6%
74. CCN1C(=O)/C(=C\c2ccc(O)c(OC)c2)SC1=S  -3.9%
75. C=CCc1cc(/C=C2\C(=O)NC(=O)N(c3ccc(Cl)cc3)C2=O)cc(OC)c1O  -4%
76. CCOC(=O)c1c(NC(=O)CC2Sc3ccccc3NC2=O)sc(C)c1C (stereo unspecified)  -4.1%
77. CCOC(=O)c1ccc(N2C(=O)NC(=O)/C(=C/c3ccc(OC)c(OC)c3)C2=O)cc1  -4.2%
78. O=C(Nc1ccc(-c2cnc(-c3ccc(NC(=O)c4ccccc4)cc3)nc2)cc1)c1ccccc1  -4.4%
79. CC(/C=C/c1ccco1)=N\NC(=O)c1cccc(F)c1  -5.1%
80. Oc1ccc(/C=N/Nc2nc3ccccc3s2)cc1  -5.4%
81. COC(=O)c1cc(Cl)c(NC(=O)c2ccccc2CCc2ccccc2)cc1OC  -5.5%
82. CC(C)(C)c1ccc(/C=C/C(=O)Nc2ccccc2C(N)=O)cc1  -5.6%
83. C/C(=N/NC(=O)c1ccoc1C)c1cccc(NC(=O)c2ccc(Cl)cc2Cl)c1  -6.1%
84. CSc1nc2sc3c(c2c(=O)n1C)CCC3  -6.5%
85. O=S(=O)(Nc1cccc(Br)c1)c1ccc2ccccc2c1  -6.5%
86. CN(C)c1ccc(C=Nn2cnnc2)cc1  -7.2%
87. CC(=O)c1cc(C(C)(C)C)c(O)c(C(C)(C)C)c1  -7.3%
88. COc1cc(OC)cc(C(=O)Nc2ccc(OC)c(OC)c2)c1  -7.7%
89. CCCCOC(=O)c1ccc(NC(=O)c2c(Cl)cccc2Cl)cc1  -7.7%
90. COc1ccc(C2CC(=O)C3=C(C2)Nc2ccccc2NC3c2ccc(OCc3ccccc3)c(OC)c2)cc1 (stereo unspecified)  -7.9%
91. COc1ccc(-c2cc(-c3ccccc3)nc(N/N=C/c3ccccc3O)n2)cc1  -8%
92. N#C/C(=C\c1ccc(C(=O)O)cc1)C(=O)NCc1ccco1  -8.1%
93. COc1cc(/C=C(\C#N)C(N)=S)ccc1OCc1ccccc1  -8.7%
94. Cc1cc(NC(=O)c2ccc(Cl)cc2[N+](=O)[O-])no1  -8.9%
95. Cc1cc(C)c(NC(=O)C(C)Sc2nnc(-c3cccc(F)c3)n2-c2ccccc2)c(C)c1 (stereo unspecified)  -9.2%
96. CCCc1c(C)c2cccc(C)c2[nH]c1=O  -9.7%
97. CCc1c(C)sc(NC(=O)c2ccccc2Cl)c1C(=O)OC(C)C  -11.2%
98. Cc1cc(NS(=O)(=O)c2ccc(NC(=O)c3cc(-c4ccccc4C)nc4ccccc34)cc2)nc(C)n1  -11.3%
99. CC(=O)NCCOc1ccccc1Oc1ccccc1  -11.5%
100. O=C(NCC1CCCO1)c1cc2ccccc2oc1=O (stereo unspecified)  -12.3%
101. COc1ccc(N2C(=O)NC(=O)/C(=C/c3cc4c(cc3Br)OCO4)C2=O)cc1  -12.7%
102. CN1C(=O)c2ccc(S(=O)(=O)c3ccc(C(=O)O)cc3)cc2C1=O  -12.7%
103. O=c1c2ccccc2nc(SCc2ccc(Cl)cc2)n1-c1ccccc1  -13%
104. CCOC(=O)c1c(N=CN(C)C)c(C#N)n2c1CCC2  -13.1%
105. Cc1ccc(Cl)cc1NC(=O)C(=O)NCCc1ccccc1  -13.4%
106. O=[N+]([O-])c1cccc(-c2ccc(C(=S)N3CCN(c4ccc(F)cc4)CC3)o2)c1  -13.6%
107. O=C(CCc1ccccc1)Nc1ccccc1C(=O)Nc1ccccc1  -14.9%
108. Fc1cccc(-c2nnc3ccc(C(F)(F)F)cn23)c1  -17%
109. CN(C)/C=C1\N=C(c2ccc([N+](=O)[O-])cc2)OC1=O  -20.8%
110. N#C/C(=C(/O)c1ccc(Cl)cc1Cl)c1nc2ccccc2[nH]1  -21.5%
111. COc1ccc(-c2c(Cc3ccccc3)nn(-c3ccccc3)c2N)cc1OC  -28.8%
